{"source": "the supplement of paper PMC12632987", "binders": {"B1": {"name": "GBRAP_11_2927 (protein)", "chain": "KKEKIKEIAELAEELAEAADRLIAEGTDNEELRKKLEELLEKLVELVKEYGDEADKKDAEHMRELWEKAKADPANAVQYLTELRNEARVLSGIYLLEYDE"}, "B2": {"name": "GBRAP_11_2788 (protein)", "chain": "KKEKLEKLAKLLEEAAKLLEKMLAGPPDDEELWKETEKKLEEAEKLAKELGLEDVAELLEYAKEDLEKAKADPENRKEYLQRALTFVRVAEGLVLLEIEE"}, "B3": {"name": "GBRAP_35_5558 (protein)", "chain": "ETDEEVLEMMTNTAEDALLAVDTIPVETLYEITTSIARAALKILREEKDNEEGMGKLAKATLELLDATIEKLKKEGAPQEKIEELEKLRKEIEEELEKIK"}, "B4": {"name": "GBRAP_160_4519 (protein)", "chain": "SEALEEAEKELEETAKEAIEMIKGETAEQRAVIVAGEFGSFAMELASNEEFSDEMVDVVLDGEDELVAYILANPDLTDEELEKLIEETVKKIKEELRKLS"}, "B5": {"name": "GBRAP_9_7159 (protein)", "chain": "LQALLDAFAAVLRDAFDEIAEIVPPEHRPVVEAARAEFEARFAALKADPSTTAEEAKEAALEALRRAAERVAAVVDPATARQAEAIILTAELEIEEIYEK"}, "B6": {"name": "GBRAP_128_3557 (protein)", "chain": "STEEAVERVRELLEAIKNSDAETARELAEELAALLAAADEETREAIVEEILERLPELSVEHLEILADVFRAAQPSADPAVAEALAEIAVEALNEAVEKEE"}, "B7": {"name": "GBRAP_160_4334 (protein)", "chain": "SEETEKLKKFIEEEFEETEKLIEGETIEQVKVLIEGTFGEIIMELSENEKVSDELLDKVIEIEDELLETLDKNPDLTEEEIKELIKESREKIIKALEESE"}, "B8": {"name": "GBRAP_160_4838 (protein)", "chain": "SEKVKAVRERLTAARDRVLAEVDKVTVEQLANFYDVEFSSVILDLREEGYINEEAEDVALEIVDQGVADLLAAKDATPEELRAIITRHTDRLIAEIEKLI"}, "B9": {"name": "GBRAP_78_6684 (protein)", "chain": "EVEEELEKAIEHLNKAAKLLNEIGTEEALDLLGEVIDAAATVEEAYFGEADLEELEKALKKLKAALKKAKEIPTAEAKEVAAELAKAIAHLEKAIKLLKK"}, "B10": {"name": "GBRAP_11_2647 (protein)", "chain": "KKETLLEAAEIARELAEVIKELIEKGVDDKELQKKAEELLKKLEELAKKYLNEAIKSDVEVAKELWKEFKEDKENALKYAKELLAAVRVLEGNLLLEADE"}, "B11": {"name": "GBRAP_184_5339 (protein)", "chain": "KTLEVHIPNSSTEEIVAKFREAAKEAAAQGADLNVHIEAEGMSTEEVVALLKELGKIAKEEGIKNVTVGIDQELDEEGADKVIAVADEYGIRLTVALKDE"}, "B12": {"name": "GBRAP_160_4448 (protein)", "chain": "SETLEKLIKLVDETTEEIKKLIEGQTHEERVVIIDVGFGELLLEFIENENVSDELEDEIAEIVDETVEYLKNNPELTEEEIKELIDEAGEKIKEAIKKHL"}, "B13": {"name": "GBRAP_80_6772 (protein)", "chain": "MEEEIEKVLKEIEKIDPEIAKLVKEAIEVARKLGVPEEVILDFAKAILELAKKDKEKARKIVKEALEELKEALKRGDKEEALAILVDAISEALLEVEELE"}, "B14": {"name": "GBRAP_160_4525 (protein)", "chain": "SENLEKAKELLEETAKELIELMKGESAEERAVIAAVEFGSLAYEFSEIPGITDEMVDVVLKQQDKLVAWILAHPDITDEEFAAKVEETVKTIKEELEKLS"}, "B15": {"name": "GBRAP_128_3350 (protein)", "chain": "LDEERLARVRAMAEAMVAADVETTRALTRELAAFIRTLDRATAEAAAEIVEAALPRFTVEQLEAIADALREARPEADPYVANLLAGVEVEALNEAEELEE"}, "B16": {"name": "GBRAP_160_4257 (protein)", "chain": "MEKREELIKEAEEDRDEILELVDTESAADVKTFAVVEMGSIIMEAIDLEVISDEEEDELMAIRDDLEADLTAAANASKDTIKAIITKYYDKLIELLKKAK"}, "B17": {"name": "GBRAP_184_5128 (protein)", "chain": "ELVNRAVEGTKAEELIKKAKEVVEEAKAKGKKLNLAVFAENMSVEEIIEVIKALGEIKKKYPEVNITLVVEDELSEEEIDKLVKEADENGVNLVLAIKEE"}, "B18": {"name": "GBRAP_57_6455 (protein)", "chain": "MSRLEKLKEAVERARELIEAGAPEEEIREAVREAVDALSEEDALDVLLQVDPEADPELSLEEVRERLVELVMEALRTEGPEAAKRLLDLALGQAEMSELE"}, "B19": {"name": "GBRAP_11_2848 (protein)", "chain": "EKEKLEEVAKQAEKLIELLEKLIKEGVDNEELLEEVEKQMEELLKLVEELGNESLKKIAEIAKENIEKIKTDPSNKEFYANNALAAVRTLRGQALLEIEE"}}, "note": "The full ranking holds about 4,500 sequences; the median of “median log2 fold change of GCK-ALFA target abundance (FLAG IP / Myc IP barcode read proportion)” is about 0.078, and the lowest 2% start at about -0.6. Some of the results follow."}
{"target": "GABARAP, O95166", "sequence (O95166 whole entry, the tested form may be a part)": "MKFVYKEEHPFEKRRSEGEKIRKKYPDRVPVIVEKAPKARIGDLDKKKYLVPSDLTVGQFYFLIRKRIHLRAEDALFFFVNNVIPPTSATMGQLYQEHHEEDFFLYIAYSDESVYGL", "assay": "median log2 fold change of GCK-ALFA target abundance (FLAG IP / Myc IP barcode read proportion) (log2 ratio); each designed protein is fused to an ALFA-tag nanobody in HEK293 cells to bring the named protein to FLAG-tagged glucokinase (GCK); Myc marks an untargeted standard; higher = target protein stabilised (more abundant)", "details": "target protein: 3xFLAG-MCP-GCK-ALFA reporter; HEK293 landing pad (RPLP)", "summary_of_the_method": "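An ALFA-nanobody-fused binder library was recombined into HEK293 landing-pad cells and induced with 2 μg mL^−1 doxycycline. Cells were transfected with a plasmid expressing a FLAG-tagged target and a Myc-tagged standard. After 48 h, lysates underwent anti-FLAG and anti-Myc immunoprecipitation, and circular RNA barcodes were reverse transcribed, amplified and sequenced. Target abundance is the per-binder median log2 ratio of FLAG to Myc barcode read proportions. Barcodes needed ≥10^−7 proportion in both replicates, binders ≥3 barcodes per replicate, and a 10^−6 pseudocount was added; the two replicates were pooled.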"}
{"binder": "B1", "median log2 fold change": 0.134}
{"binder": "B2", "median log2 fold change": -0.273}
{"binder": "B3", "median log2 fold change": 0.122}
{"binder": "B4", "median log2 fold change": -0.322}
{"binder": "B5", "median log2 fold change": 0.249}
{"binder": "B6", "median log2 fold change": 0.148}
{"binder": "B7", "median log2 fold change": -0.128}
{"binder": "B8", "median log2 fold change": 0.195}
{"binder": "B9", "median log2 fold change": 0.239}
{"binder": "B10", "median log2 fold change": 0.394}
{"binder": "B11", "median log2 fold change": 0.215}
{"binder": "B12", "median log2 fold change": -0.366}
{"binder": "B13", "median log2 fold change": 0.119}
{"binder": "B14", "median log2 fold change": -0.0547}
{"binder": "B15", "median log2 fold change": 0.0288}
{"binder": "B16", "median log2 fold change": 0.229}
{"binder": "B17", "median log2 fold change": -0.103}
{"binder": "B18", "median log2 fold change": 0.286}
{"binder": "B19", "median log2 fold change": 0.118}
